Measured values: PubChem BioAssay AID504332 (National Center for Advancing Translational Sciences (NCATS), 2011)
Out of some 350,000 compounds screened, about 31,000 (8.9%) were called active. Inconclusive results, whose numbers are uncertain, are shown with a selection of clear calls. Calls follow the shape of the dose curve; as a rule, active = well fitted inhibition curve with a large enough effect; inconclusive = small, poorly fitted or top-dose-only effect; inactive = no such curve, though single readings can be large or run the other way. Potencies beside an inconclusive call are fits to weak or partial responses and may not hold up.

The molecules below were run against Histone-lysine N-methyltransferase EHMT2 (Homo sapiens) (UniProt Q96KQ7) (assay: qHTS Assay for Inhibitors of Histone Lysine Methyltransferase G9a). Details: G9a H3K9 monomethylation, AlphaScreen, 2 h; activity, negative = inhibition: at 59 µM (top of the series) unless noted.
Chain of UniProt Q96KQ7 (Q96KQ7 whole entry, looked up): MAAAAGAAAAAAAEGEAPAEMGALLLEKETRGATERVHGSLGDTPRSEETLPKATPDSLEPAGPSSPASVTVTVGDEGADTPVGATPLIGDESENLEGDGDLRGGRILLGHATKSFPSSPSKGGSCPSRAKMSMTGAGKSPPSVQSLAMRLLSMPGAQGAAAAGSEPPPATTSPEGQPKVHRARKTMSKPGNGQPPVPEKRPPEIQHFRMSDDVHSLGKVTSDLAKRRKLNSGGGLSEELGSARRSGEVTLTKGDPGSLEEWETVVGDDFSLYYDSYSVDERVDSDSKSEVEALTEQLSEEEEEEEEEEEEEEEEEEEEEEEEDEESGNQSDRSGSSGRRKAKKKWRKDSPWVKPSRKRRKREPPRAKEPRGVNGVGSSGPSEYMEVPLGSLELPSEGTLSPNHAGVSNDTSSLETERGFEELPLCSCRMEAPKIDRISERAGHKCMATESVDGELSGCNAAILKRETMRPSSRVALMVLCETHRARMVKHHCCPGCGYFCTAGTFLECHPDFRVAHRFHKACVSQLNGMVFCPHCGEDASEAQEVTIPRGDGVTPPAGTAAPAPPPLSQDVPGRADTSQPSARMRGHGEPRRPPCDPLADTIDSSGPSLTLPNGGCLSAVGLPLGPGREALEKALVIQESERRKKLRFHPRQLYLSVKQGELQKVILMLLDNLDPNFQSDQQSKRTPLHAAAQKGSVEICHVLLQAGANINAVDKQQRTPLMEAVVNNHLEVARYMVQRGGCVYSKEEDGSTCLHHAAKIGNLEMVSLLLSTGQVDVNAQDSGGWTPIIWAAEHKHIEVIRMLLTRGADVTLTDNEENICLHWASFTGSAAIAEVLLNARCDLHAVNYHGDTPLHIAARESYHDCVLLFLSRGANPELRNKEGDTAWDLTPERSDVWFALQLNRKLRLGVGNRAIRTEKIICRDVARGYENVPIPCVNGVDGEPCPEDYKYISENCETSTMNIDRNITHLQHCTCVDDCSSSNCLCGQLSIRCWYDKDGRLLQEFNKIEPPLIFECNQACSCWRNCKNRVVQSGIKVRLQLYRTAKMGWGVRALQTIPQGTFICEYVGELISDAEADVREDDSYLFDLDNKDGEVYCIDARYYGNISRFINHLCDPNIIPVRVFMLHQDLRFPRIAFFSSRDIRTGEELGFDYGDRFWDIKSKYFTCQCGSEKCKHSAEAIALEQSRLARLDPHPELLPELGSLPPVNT
How it was run: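 AlphaScreen detection with an anti-monomethyl H3K9 antibody quantified product after a 2 h room-temperature reaction containing 500 nM biotinylated H3K9 peptide, 20 µM SAM and 20 nM enzyme, which had been preincubated 15 min with compound.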
% is scaled to controls: 0 for no effect and ±100 for the full control effect; potency is read from the fitted curve at half-maximal effect; tags tell the direction and shape of the fitted curve.
Also: nearly all actives have a fitted effect of over 75% in size.

| Compound | activity, negative = inhibition | Potency |
| --- | --- | --- |
| CN(C)C(=O)c1cccc(-c2csc(N3CCC(C(N)=O)CC3)n2)c1 | inactive: -26% [at 12.7 µM] |  |
| CN(C)C(=O)/C(=C/c1ccc(-c2cccc([N+](=O)[O-])c2)o1)NC(=O)c1ccccc1 |  | inconclusive: 25.1 µM [inhibitor, full curve] |
| CC1CCN(c2oc(-c3ccco3)nc2S(=O)(=O)c2ccccc2)CC1 |  | inconclusive: 79.4 µM [inhibitor, single point] |
| CC1CCCCN1C(=O)CSc1nc(N)nc(N)n1 (stereo not drawn) |  | inconclusive: 79.4 µM [inhibitor, single point] |
| Oc1c(C=Nc2cccc3cccnc23)sc2ccccc12 |  | inconclusive: 89.1 µM [inhibitor, single point] |
| Cc1ccc(C)c(NC(=O)c2cnn(-c3cccc(F)c3)c2C2CCN(C(=O)OC(C)(C)C)CC2)c1 | inactive: -0.177% |  |
| COc1ccc(CNC(=O)COC(=O)c2c(C)nn(-c3ccccc3)c2C)cc1OC | inactive: 4% [at 102 µM] |  |
| S=C1NCCNC(=S)NCCOCCOCCOCCN1 |  | active: 25.1 µM |
| O=C(CCCC(=O)c1ccc(O)cc1)c1ccc(O)cc1 | inactive: 18.8% [at 2.33 µM] |  |
| CN1C=C/C(=C\c2cc[n+](C)c3ccccc23)c2ccccc21 |  | inconclusive: 31.6 µM [inhibitor, single point] |
| O=C(c1cc2ccccc2o1)N1CCN(c2ccccn2)CC1 | inactive: 1.39% [at 102 µM] |  |
| Cc1cccc(CN2C(=O)c3ccccc3Sc3ccc(C(=O)O)cc32)c1 |  | inconclusive: 89.1 µM [inhibitor, single point] |
| CNc1nc(N)c([N+](=O)[O-])c(Nc2cccc(F)c2)n1 |  | inconclusive: 89.1 µM [inhibitor, partial curve, poor fit] |
| CCC(=O)N1N=C(c2ccc(C)o2)CC1c1ccc(N(C)C)cc1 (stereo not drawn) |  | active: 50.1 µM |
| COc1ccccc1C(CNC(=O)c1cccc(S(=O)(=O)Nc2ccc(C)cc2)c1)N(C)C (stereo not drawn) | inactive: 13.3% [at 12.7 µM] |  |
| CN(CC(=O)Nc1ccc(N2CCOCC2)cc1)CC(=O)Nc1ccc(N2CCOCC2)cc1 | inconclusive: -100% [inhibitor] |  |
| CCOC(=O)NC1(Nc2ccc(C)cc2)Oc2ccccc2O1 |  | inconclusive: 2.24 µM [inhibitor, full curve, poor fit] |
| CC(C)(C)c1ccc(C2=NC(=O)C(CC(=O)O)S2)cc1 (stereo not drawn) |  | active: 50.1 µM |
| COc1ccccc1N(C)S(=O)(=O)c1ccc(C(=O)OCC(=O)Nc2ccc(C(N)=O)cc2)cc1 |  | inconclusive: 31.6 µM [inhibitor, single point] |
| COc1ccc(CCNC(=O)CSc2cn(Cc3ccccc3)c3ccccc23)cc1OC |  | inconclusive: 79.4 µM [inhibitor, single point] |
| O=C(CSc1ccc2c(c1)OCCO2)N1CCN(c2ccccc2)CC1 |  | inconclusive: 7.08 µM [inhibitor, single point] |
| O=C(CN1C(=O)NC(c2ccccc2)(c2ccccc2)C1=O)Nc1ccc2[nH]c(=O)[nH]c2c1 |  | inconclusive: 44.7 µM [inhibitor, partial curve] |
| COc1ccc(NS(=O)(=O)c2cc(NC(=O)CCSc3ccccc3)ccc2OC)cc1 |  | inconclusive: 1.26 µM [inhibitor, partial curve, poor fit] |
| Cn1c(=O)nc2n(Cc3ccccc3)c3cccc(Cl)c3cc-2c1=O |  | inconclusive: 28.2 µM [inhibitor, single point] |
| CCCC(=O)N1c2ccc(-c3csc(N)n3)cc2CC1C (stereo not drawn) |  | active: 70.8 µM |

| Compound | activity, negative = inhibition | Potency |
| --- | --- | --- |
| CN1OC2C(=O)N(c3ccccc3)C(=O)C2C1c1ccc(F)cc1 (stereo not drawn) | inactive: -19.2% [at 102 µM] |  |
| CN(C(=O)c1cncc(Br)c1)c1c(N)n(Cc2ccccc2)c(=O)[nH]c1=O |  | inconclusive: 50.1 µM [inhibitor, partial curve] |
| O=C(NCc1cccnc1)/C(=C/c1ccc(-c2cccc(C(F)(F)F)c2)o1)NC(=O)c1ccccc1 | inactive: -2.54% |  |
| Cc1c(/N=C/c2ccco2)n(Cc2ccccc2)c2ccccc12 |  | active: 39.8 µM |
| O=C(CNCC1CCCO1)N1CCN(S(=O)(=O)c2ccc3ccccc3c2)CC1 (stereo not drawn) |  | inconclusive: 14.1 µM [inhibitor, partial curve, poor fit] |
| CN(CC(=O)Nc1ccc(N2CCOCC2)cc1)C(=O)c1cc(S(=O)(=O)N(C)C)ccc1Cl |  | inconclusive: 89.1 µM [inhibitor, single point] |
| CCOC(=O)C1=CN(c2cccc(F)c2)C=C(C(=O)OCC)C1c1cc(OC)c(O)c([N+](=O)[O-])c1 | inconclusive: -117% [inhibitor] |  |
| COc1ccc2oc(=O)cc(CN3CCN(Cc4ccccc4)CC3)c2c1 | inactive: -35.1% |  |
| Nc1cccnc1Sc1ccc(Cl)cc1 | inactive: 48.6% [at 12.7 µM] |  |
| O=C(CNC(=O)c1cccc(F)c1)N/N=C/c1cc(Br)ccc1OC(=O)/C=C/c1ccco1 |  | inconclusive: 17.8 µM [inhibitor, single point] |
| CCN(CC)CCCNC(=O)c1oc2ccc(S(=O)(=O)N3CC(C)CC(C)C3)cc2c1C (stereo not drawn) |  | inconclusive: 79.4 µM [inhibitor, single point] |
| Cc1ccc(S(=O)(=O)Nc2ccc3c(c2)CCCN3C(=O)c2cccs2)cc1 | inactive: 3.2% |  |
| C(=N\N1CCN(Cc2cccc3ccccc23)CC1)/c1cccs1 |  | active: 50.1 µM |
| CN1CCN(CC(=O)n2c3c(c4ccccc42)CCCC3)CC1 |  | active: 39.8 µM |
| O=C(NCc1nnc(SCC(=O)N2CCN(c3ccccc3)CC2)o1)c1ccc(F)cc1 |  | active: 79.4 µM |
| Cn1c(-c2ccc3c(c2)OCO3)cnc1NCc1cccc(O)c1 |  | active: 22.4 µM |
| Cc1ccc(CNC(=O)CCS(=O)(=O)c2cc(Br)cc3c2N(C(=O)C2CC2)CC3)o1 | inconclusive: -56.4% [inhibitor] |  |
| S=c1[nH]nc(COc2ccccc2)n1/N=C/c1cccc(Cl)c1Cl |  | inconclusive: 35.5 µM [inhibitor, single point] |
| Cc1cc(/C(=N/O)C(C)(C)NO)ccc1Cl | inconclusive: -51.1% [inhibitor] [at 12.7 µM] |  |
| Cc1nc2ccccc2c(=O)n1NCc1cccs1 | inconclusive: -69.5% [inhibitor] [at 0.0925 µM] |  |
| CC1(C)Cc2c(sc3nc4n(-c5ccccc5)c(=O)c(CCC(=O)O)nn4c(=O)c23)CO1 | inactive: -31.8% [at 102 µM] |  |
| CCCOc1ccc(C(O)(CCC)CCN2CCCCC2)cc1 (stereo not drawn) | inactive: 19.1% |  |
| COc1cc(C(=O)Oc2ccc3ccc(O)cc3c2)cc(OC)c1OC |  | inconclusive: 89.1 µM [inhibitor, single point] |
| S=C(NCc1ccco1)N1CCN(Cc2ccco2)CC1 |  | active: 7.08 µM |
| Cc1ccc(S(=O)(=O)CCC(=O)O)cc1C |  | inconclusive: 8.91 µM [inhibitor, single point] |

| Compound | activity, negative = inhibition | Potency |
| --- | --- | --- |
| Cc1ccc(OCc2ccc(C(=O)O)o2)c([N+](=O)[O-])c1 |  | active: 50.1 µM |
| CCOc1cc(Br)ccc1S(=O)(=O)N1CCC(C(N)=O)CC1 |  | inconclusive: 8.91 µM [inhibitor, single point] |
| COc1cccc(-n2c(C)nnc2SCC(=O)Nc2ccccc2N2CCOCC2)c1 |  | inconclusive: 56.2 µM [inhibitor, partial curve] |
| CCn1c(O)c(N=NC(=O)CNc2ccc(C)cc2)c2ccccc21 |  | inconclusive: 39.8 µM [inhibitor, single point] |
| COc1ccc(-c2nn(-c3ccccc3)cc2/C=N/Nc2ccc3ccccc3n2)cc1OC |  | inconclusive: 39.8 µM [inhibitor, single point] |
| COc1cccc(N2CCN(C(=O)c3ccc(Cn4c(=O)[nH]c5cc(OC)c(OC)cc5c4=O)cc3)CC2)c1 | inactive: -44.1% |  |
| Nc1nnc2c(n1)[nH]c1ccccc12 | inactive: 20.1% |  |
| CCCC(=O)Nc1c(I)cc(I)c(C[C@H](CC)C(=O)O)c1I |  | inconclusive: 1.41 µM [inhibitor, partial curve, poor fit] |
| COc1cccc(CSc2nc3cc(C(=O)NC4CCCC4)ccc3c(=O)n2Cc2ccccc2)c1 | inactive: 0.321% |  |
| O=C(Nc1cc(=O)c2ccccc2o1)N1CCCCC1 |  | inconclusive: 79.4 µM [inhibitor, partial curve, poor fit] |
| O=C(O)c1ccc(N/N=C/c2cc(Br)cs2)cc1 | inactive: -47.8% [at 102 µM] |  |
| Cc1ccc(-n2nc3c(=O)n(C(C)C(=O)NCCC4=CCCCC4)nc(C)c3c2C)cc1 (stereo not drawn) | inactive: 13.2% |  |
| CN1C(=O)/C(=C/c2cn(CC(=O)N3CCCCC3)c3ccccc23)c2ccccc21 |  | active: 11.2 µM |
| CCCc1nc(SCC(=O)NCc2ccco2)c2c(=O)n(C)c(=O)n(C)c2n1 |  | active: 44.7 µM |
| O=C(CSCc1ccccc1)Nc1ccc2c(c1)C(=O)NC2=O |  | inconclusive: 56.2 µM [inhibitor, partial curve] |
| Cc1nnc(NC(=O)c2cccc(S(=O)(=O)N3CCc4ccccc43)c2)s1 |  | inconclusive: 25.1 µM [inhibitor, partial curve, poor fit] |
| Cc1sc2nc3ccc(N4CCCCC4)nn3c(=O)c2c1C |  | active: 31.6 µM |
| CCCC(=O)N(c1ccc2oc3c(c2c1)CCCC3)S(=O)(=O)c1cc(C)ccc1C | inactive: -4.52% |  |
| O=C1CC(c2nc3ccccc3[nH]2)CN1c1cccc(Cl)c1 (stereo not drawn) | inactive: 2.66% |  |
| CC(Sc1nnc(NC2CC2)s1)C(=O)Nc1ccc(N2CCOCC2)cc1 (stereo not drawn) |  | active: 44.7 µM |
| COc1cccc(C(C)N(C)Cc2nc(-c3ccoc3)oc2C)c1 (stereo not drawn) |  | inconclusive: 25.1 µM [inhibitor, partial curve, poor fit] |
| CCOC(=O)C1=C(C)NC(=O)NC1c1ccc(OCC(=O)Nc2ccccc2)c(OC)c1 (stereo not drawn) | inactive: -2.63% |  |
| Cc1cc(Cl)ccc1NC(=O)c1cc(S(=O)(=O)N2CCOCC2)cn1C | inactive: 9.82% |  |
